Test results: PubChem BioAssay AID903 (National Center for Advancing Translational Sciences (NCATS), 2007)
Out of some 55,000 compounds screened, about 340 (0.62%) were called active. The inconclusive results got no clear call from the source; some entries with a clear call stand among them for comparison. Calls follow the shape of the dose curve; as a rule, active = well fitted cell-killing curve with a large enough effect; inconclusive = small, poorly fitted or top-dose-only effect; inactive = no such curve, though single readings can be large or run the other way. Potencies of inconclusive entries are doubtful fits and often do not repeat.

assay: qHTS Screen for Compounds that Selectively Target Cancer Cells with p53 Mutations: Cytotoxicity of p53 Null Cells at the Permissive Temperature; conditions: H1299-neo p53 null cells, ATP luminescence, 24 h, 32C; series mostly up to 46.1 µM; also: nearly all actives have a fitted effect of over 55% in size
Outline: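 H1299-neo (p53 null) cells, 600/well, treated 24 h at 32C with compound up to 46 uM; ATPlite luminescence viability, normalized to DMSO and 100 uM tamoxifen; AC50 by Hill fit.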
Potency is read from the fitted curve at half-maximal effect; tags tell the direction and shape of the fitted curve.

SMILES	Potency
CCOc1ccccc1C(=O)NCc1nc2cccnc2n1Cc1ccc(C)cc1	inconclusive: 5.62 µM [cytotoxic, single point]
Cc1ccc(-n2ncc3c(NC4CCCCC4)ncnc32)cc1Cl	inconclusive: 12.6 µM [cytotoxic, partial curve]
COc1ccc(OC)c(NC(=O)CCNS(=O)(=O)c2ccc3c(c2)oc(=O)n3C)c1	inconclusive: 35.5 µM [cytotoxic, single point]
COc1ccccc1CNC(=O)CCn1cnc2ccccc2c1=O	inconclusive: 0.794 µM [cytotoxic, single point]
Cc1c(Cl)cccc1Nc1nn2c(=O)c3ccc(C(=O)NCCC4=CCCCC4)cc3nc2s1	inactive
Cc1ccc2nc(Cl)c3cc(C(=O)NCCCN(C)Cc4ccccc4)sc3c2c1	inconclusive: 31.6 µM [cytotoxic, single point]
COC(=O)c1ccccc1NC(=O)C1CCCN(c2nnc(C)c3c(C)n(-c4ccccc4)nc23)C1 (stereo not given)	inactive
Cc1ccc(C)c(N2CCN(C(=O)CS(=O)(=O)c3cccc4nsnc34)CC2)c1	inconclusive: 3.16 µM [cytotoxic, single point]
CCCC1=Nc2cc(C(=O)NCCOC)ccc2Sc2ccccc21	inactive
CC(=O)Nc1ccc(NC(=O)c2cc(-c3ccc4c(c3)OCCO4)on2)cc1	inconclusive: 3.16 µM [cytotoxic, full curve]
CCOc1cccc(NC(=O)C2CC(=O)N(C)C(=Nc3ccc(OC)cc3)S2)c1 (stereo not given)	inactive
CCOc1ccccc1CNC(=O)c1oc2ccc3c(c2c1C)C(=O)CC(C)(C)O3	inconclusive: 0.0631 µM [cytotoxic, full curve, poor fit]
CCOc1ccc(-c2cc(C(=O)O)c3ccccc3n2)c(OCC)c1	inconclusive: 35.5 µM [cytotoxic, single point]
COc1ccccc1NC(=O)CSc1nnc(-c2ccccc2C)o1	inconclusive: 15.8 µM [cytotoxic, partial curve]
CC(C)Cc1ccc(S(=O)(=O)N2CCC(c3ccncc3)CC2)cc1	inconclusive: 11.2 µM [cytotoxic, partial curve]
COc1ccc(C(=O)CSc2nc(C)cc(C)c2C(=O)Nc2ccccc2C)cc1	inconclusive: 25.1 µM [cytotoxic, single point]
CCc1ccc(CNC(=O)c2ccc3c(Cl)c4c(nc3c2)CCCC4)cc1	inactive
Cc1cccc(NC(=O)Nc2ccc(F)cc2)n1	inconclusive: 12.6 µM [cytotoxic, single point]
Cc1ccc(C)c(N2CCN(C(=O)CN3CCSc4ccc(S(=O)(=O)N(C)C)cc43)CC2)c1	inactive
CC1=C(c2ccc(C)c(C)c2)S(=O)(=O)N=C1N1CCC(C(=O)NCCc2ccc(Cl)cc2)CC1	inconclusive: 12.6 µM [cytotoxic, single point]
Cn1nnnc1SCCNCc1ccccc1OCc1ccccc1F	inconclusive: 31.6 µM [cytotoxic, single point]
Cc1c(/C=C/C(=O)c2ccc(O)cc2)cnn1C	inconclusive: 14.1 µM [cytotoxic, single point]
CCCCN(C)C(=O)CSc1c2c(nc3ccc(Cl)cc13)CCCC2	inactive
CCc1ccccc1NC(=O)Cn1c(=O)n(CCc2ccccc2)c(=O)c2sc3ccccc3c21	inconclusive: 3.98 µM [cytotoxic, partial curve]

SMILES	Potency
O=C(Nc1onc2c1CCCC2)c1ccccc1	inconclusive: 15.8 µM [cytotoxic, partial curve]
COc1ccccc1C(=O)NC(=S)NNC(=O)c1sc2ccccc2c1Cl	inconclusive: 20 µM [cytotoxic, single point]
Cc1cc2[nH]c(=O)c(=O)[nH]c2cc1S(=O)(=O)N1CCN(c2ccccc2)CC1	inactive
O=C(COc1ccccc1)Nc1sc2c(c1C(=O)Nc1ccccc1Cl)CCCCC2	inactive
CC(=O)N1CCCc2cc(S(=O)(=O)N3CCC(C(=O)N(Cc4ccccc4)C(C)C)CC3)ccc21	inactive
Cc1ccc(-n2ncc3c(N4CCN(c5ccccc5)CC4)ncnc32)cc1C	inactive
CCOc1ccc(NC(=O)c2cc3sc(Cl)cc3n2CC)cc1	inactive
Cc1ccc(-c2cc(NC(=O)c3ccccc3Cl)on2)cc1	inactive
Cc1ccc(CNC(=O)c2cnc3c(-c4ccc(F)cc4)c(C)nn3c2C)o1	inactive
Cc1ccccc1NC(=O)/C(C#N)=C/c1ccc(Cl)cc1Cl	inconclusive: 25.1 µM [cytotoxic, single point]
Cc1ccc2nc(-c3ccc(NC(=O)COc4ccc(Br)cc4Br)cc3)sc2c1	inconclusive: 10 µM [cytotoxic, partial curve]
CCc1ccc(-n2nc(CO)c(C(=O)NC)n2)cc1	inconclusive: 10 µM [cytotoxic, partial curve]
CCNC(=O)CC1C(=O)N(c2ccc(C)cc2)C(=O)N1CCOC (stereo not given)	inconclusive: 12.6 µM [cytotoxic, single point]
CCOC(=O)C1=C(C)n2c(s/c(=C3\C(=O)Nc4ccccc43)c2=O)=NC1c1ccc(OC)cc1 (stereo not given)	inconclusive: 10 µM [cytotoxic, single point]
Cc1cc2oc(=O)c(CC(=O)O)c(C)c2c2occ(-c3ccccc3)c12	inconclusive: 10 µM [cytotoxic, partial curve]
Cc1ccccc1Nc1nn2c(=O)c3ccc(C(=O)NCc4cccs4)cc3nc2s1	inconclusive: 20 µM [cytotoxic, single point]
CC(C)(C)n1nnnc1C(c1ccc(Cl)cc1)N(Cc1cccnc1)Cc1ccco1 (stereo not given)	inactive
COc1ccc(-c2[nH]ncc2C(=O)NCc2cccc(F)c2)cc1	inconclusive: 11.2 µM [cytotoxic, partial curve, poor fit]
Cc1cc(N2CCN(C)CC2)nc2ccc(NC(=O)Nc3ccccc3)cc12	inconclusive: 10 µM [cytotoxic, partial curve]
COc1ccccc1-c1cc(C(F)(F)F)nc(S(=O)(=O)CCCC(=O)Nc2cc(Br)ccc2O)n1	inconclusive: 25.1 µM [cytotoxic, single point]
COc1ccccc1/C=N/NC(=O)CCn1cnc2ccccc21	inconclusive: 0.126 µM [cytotoxic, partial curve, poor fit]
CN(C)S(=O)(=O)Nc1ccc(-c2cn3ccsc3n2)cc1	inconclusive: 12.6 µM [cytotoxic, partial curve]
CCCOC(=O)C(C)n1nnc2sc(-c3ccccc3)cc2c1=O (stereo not given)	inconclusive: 12.6 µM [cytotoxic, partial curve]
CCCN1CCN(c2ncnc3sc(C(=O)Nc4ccc(N(CC)CC)cc4C)c(C)c23)CC1	inconclusive: 5.62 µM [cytotoxic, single point]

SMILES	Potency
COc1ccc(N2CCN(Cc3nc4c(c(=O)[nH]c(=O)n4C)n3Cc3ccc(C)cc3)CC2)cc1	inconclusive: 12.6 µM [cytotoxic, single point]
C=CCN1C=CC(=C/C=C(/C#N)C(=O)OCC)C=C1	active: 8.91 µM
Cc1nn(C(C)C(=O)NC2CCC(C)CC2)c(=O)c2c1sc1ccccc12 (stereo not given)	inconclusive: 20 µM [cytotoxic, single point]
COc1ccc(CNC(=O)c2nc(SCc3ccc(C)cc3)ncc2Cl)cc1	inactive
Cc1cc(N2CCN(C)CC2)nc2ccc(NC(=O)c3ccc(C(C)(C)C)cc3)cc12	active: 25.1 µM
Cc1ccc(Cl)cc1-n1nnc(-c2nsc(NC(=O)c3ccccc3Cl)n2)c1C	inactive
COc1ccc(C)cc1NC(=O)c1ccc2c(Cl)c3c(nc2c1)CCC3	inconclusive: 2 µM [cytotoxic, full curve]
O=C(Nc1ccc(F)cc1F)c1noc2c1CCc1ccccc1-2	inactive
CSc1ccc(CCNC(=O)Cn2ncc3c(=O)oc4ccc(C)cc4c32)cc1	inconclusive: 5.62 µM [cytotoxic, single point]
Cc1ccc(OCC(=O)NCC(c2ccc(Cl)cc2)N2CCOCC2)cc1C (stereo not given)	inactive
COc1cccc(C(=O)Nc2cccc(-c3nc4ncccn4c3C)c2)c1	inactive
Cc1ccc2c(c1)c1c(c(=O)n(-c3ccccc3C)c(=O)n1CC(=O)c1ccc(Cl)cc1)n2C	inconclusive: 3.16 µM [cytotoxic, single point]
Cc1cc(NC(=O)CCc2nc3cccnc3n2Cc2cccs2)ccc1Br	inconclusive: 5.62 µM [cytotoxic, single point]
COc1ccc2c(c1)CCc1c(C(=O)Nc3ccccc3C(F)(F)F)noc1-2	inactive
CCCn1c(CCC(=O)Nc2cc(Cl)c(OC)cc2OC)nc2cccnc21	inconclusive: 4.47 µM [cytotoxic, single point]
COc1ccc2nc3sc(C(=O)Nc4cc(Cl)c(OC)cc4OC)cc3cc2c1	inactive
Cc1nc2ccccn2c1C(=O)Nc1ccc2c(c1)OCCO2	inconclusive: 11.2 µM [cytotoxic, partial curve]
NC(=O)c1ccccc1NC(=O)NC1CCCCC1	inconclusive: 35.5 µM [cytotoxic, single point]
Cc1cc(Nc2sc(C(=O)c3ccc(F)cc3)c(N)c2C(=O)Nc2ccc(F)cc2)ccc1Cl	inactive
COc1cccc(-n2c(=O)c3sc4ccccc4c3n(CC(=O)Nc3ccc(F)cc3F)c2=O)c1	inconclusive: 3.16 µM [cytotoxic, single point]
Cc1cccc2c1-c1sc(C(=O)NCCc3ccc(Cl)cc3)cc1CO2	inactive
Cc1cc(C)cc(OCc2cc(=O)n3cc(C)sc3n2)c1	inconclusive: 5.62 µM [cytotoxic, single point]
